Reference: the supplement of paper PMC12217912
Some of the results follow. Sequences were assembled here from the parent chain. Inactive controls read about 0.05.

B1: TEV protease; numbered along this chain (parent)
chain: MGESLFKGPRDYNPISSSICHLTNESDGHTTSLYGIGFGPFIITNKHLFRRNNGTLVVQSLHGVFKVKDTTTLQQHLVDGRDMIIIRMPKDFPPFPQKLKFREPQREERICLVTTNFQTKSMSSMVSDTSCTFPSGDGIFWKHWIQTKDGQCGSPLVSTRDGFIVGIHSASNFTNTNNYFTSVPKNFMELLTNQEAQQWVSGWRLNADSVLWGGHKVFMVKPEEPFQPVKEATQL

Variants of: B1
Assay: raw area under fraction-flipped curve 0-4 h after induction (AUC4h, not background-subtracted), DNA-recorder readout of cleavage of the substrate (dimensionless); higher = more cleavage of the substrate by the protease variant
Details: temperature: 34 °C; time window: 0-4 h after rhamnose induction
Description: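 In vivo DNA recorder in E. coli TOP10(DE3) ΔrhaA at 34 °C. Each TEVp single-site mutant (parent TEVp 0) is paired with a single-site variant of the 7-mer TEVs (canonical ENLYFQ|S). The substrate sits between flexible linkers in a Bxb1-sfGFP-TEVs-SsrA fusion, so cleavage stabilises Bxb1 and speeds flipping of a recombination array, read by NGS. The value is the raw area under the fraction-flipped curve over 0-4 h after rhamnose induction (AUC4h), with ≥20 reads per time point. It is not background-subtracted; inactive controls average about 0.047.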
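Also: Bxb1 expression induced with 0.2% (w/v) L-rhamnose at OD600 near 0.5, cultures sampled hourly, flipped fraction per protease–substrate barcode pair counted by paired-end Illumina sequencing.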

Variant | area with substrate ENLYFAS | area with substrate ENLYFCS | area with substrate ENLYFDS | area with substrate ENLYFES | area with substrate ENLYFFS | area with substrate ENLYFGS | area with substrate ENLYFHS | area with substrate ENLYFIS | area with substrate ENLYFKS | area with substrate ENLYFLS | area with substrate ENLYFMS | area with substrate ENLYFNS | area with substrate ENLYFPS | area with substrate ENLYFRS | area with substrate ENLYFTS | area with substrate ENLYFYS | area with substrate ENLYFSS | area with substrate ENLYFWS | area with substrate ENLYFVS
R81Y | 0.0585 | 0.0578 | 0.0892 | 0.0733 | 0.0658 | 0.079 | 0.0517 | 0.0527 | 0.0534 | 0.0603 | 0.0589 | 0.0551 | 0.0557 | 0.0565 | 0.0686 | 0.0565 |  |  | 
T129G | 0.0549 | 0.0509 | 0.0605 | 0.0722 | 0.0603 |  |  | 0.0556 |  |  |  |  | 0.0469 |  |  |  | 0.0546 |  | 
T129N | 0.0741 | 0.0594 | 0.064 |  | 0.0539 |  |  | 0.0491 | 0.0611 | 0.0612 | 0.0734 |  | 0.0553 | 0.0631 |  | 0.0501 | 0.0525 | 0.0578 | 
R109V | 0.0656 |  |  | 0.0644 | 0.0622 | 0.0631 | 0.0419 | 0.0514 | 0.0685 | 0.066 | 0.068 | 0.0761 | 0.074 | 0.0731 | 0.0649 |  | 0.0667 | 0.0533 | 0.0509
P94S | 0.0633 | 0.0573 |  | 0.0651 | 0.0676 |  |  | 0.0598 | 0.0524 |  | 0.066 | 0.0606 | 0.0538 |  | 0.0623 | 0.0564 |  | 0.0701 | 0.0595
P94F | 0.0553 |  |  | 0.163 |  |  |  | 0.0685 |  |  |  |  | 0.055 | 0.0414 |  | 0.0489 |  |  | 
F117Q | 0.0495 |  |  | 0.0587 | 0.0288 |  |  | 0.0589 | 0.059 | 0.0565 | 0.0788 | 0.0682 | 0.0587 | 0.0435 |  | 0.0638 | 0.0596 | 0.055 | 0.0535
F117C | 0.0662 | 0.177 | 0.0694 | 0.0691 |  | 0.053 | 0.0629 | 0.0599 | 0.0653 | 0.069 | 0.0822 | 0.0615 | 0.0578 |  | 0.058 | 0.0476 | 0.057 |  | 
T115L | 0.0656 | 0.0596 |  |  | 0.0683 |  | 0.0513 | 0.0385 |  |  | 0.0837 |  |  | 0.0694 | 0.0518 | 0.05 | 0.0618 |  | 0.0557
K100C | 0.0504 | 0.0718 | 0.0456 | 0.061 | 0.0682 |  |  | 0.0533 | 0.0553 |  | 0.0713 | 0.0634 | 0.0585 | 0.0641 | 0.0641 | 0.0429 |  | 0.045 | 0.0608
I86S | 0.0469 | 0.0497 | 0.0473 | 0.0641 | 0.0684 |  | 0.058 | 0.0447 | 0.0556 |  | 0.0493 | 0.045 | 0.0574 | 0.0445 | 0.0413 |  |  | 0.052 | 0.0536
Q105S | 0.0337 | 0.0677 | 0.101 | 0.0681 | 0.0748 |  |  | 0.0617 | 0.0697 |  | 0.0591 |  |  | 0.0614 |  |  | 0.0675 |  | 
Q105P | 0.0594 |  |  | 0.0547 | 0.0699 | 0.0455 | 0.0553 | 0.0448 | 0.055 | 0.0543 | 0.0462 | 0.0645 | 0.0432 | 0.0576 | 0.0469 |  | 0.0426 | 0.0565 | 
V78L | 0.0703 | 0.0559 |  |  | 0.0456 |  |  | 0.0585 | 0.0691 |  | 0.0617 | 0.0622 |  |  | 0.0597 | 0.0549 |  | 0.0714 | 
M125H | 0.066 | 0.0761 | 0.0535 | 0.0632 | 0.0684 |  |  | 0.0578 | 0.0584 |  | 0.0656 | 0.0555 | 0.0633 | 0.0516 | 0.0672 | 0.0679 | 0.116 |  | 0.0441
M125P | 0.0619 |  | 0.0523 | 0.0714 | 0.017 |  |  | 0.0551 | 0.0524 |  | 0.0324 | 0.0602 | 0.063 |  |  |  | 0.0788 |  | 
M125Q | 0.0765 | 0.0537 | 0.0366 | 0.0637 | 0.0639 |  | 0.0504 | 0.0698 | 0.0601 |  | 0.0617 | 0.0599 | 0.0583 | 0.0219 | 0.0579 | 0.0505 |  | 0.0547 | 0.0473
S130H | 0.0559 | 0.0582 |  | 0.0588 | 0.0544 |  | 0.0343 | 0.0613 | 0.0493 | 0.0666 | 0.0701 |  | 0.0377 |  |  |  | 0.0587 |  | 
P96I | 0.0499 | 0.0524 | 0.0563 | 0.0812 | 0.0705 |  |  | 0.0497 | 0.0376 | 0.0444 | 0.0519 |  | 0.0608 | 0.053 | 0.0355 | 0.0567 | 0.0475 |  | 
H76K | 0.0466 | 0.0543 | 0.0526 |  | 0.0637 |  | 0.0999 |  |  | 0.0617 | 0.0603 | 0.0415 | 0.0626 |  |  |  |  | 0.0614 | 0.0448
R102P | 0.0541 | 0.0495 |  |  | 0.0509 |  | 0.0479 | 0.0394 |  | 0.0685 | 0.0433 | 0.0483 |  | 0.0454 | 0.0544 | 0.0442 | 0.0636 |  | 0.0588
F101R | 0.0385 | 0.0499 | 0.0394 | 0.0836 |  | 0.0475 |  | 0.043 |  |  | 0.0565 | 0.0493 | 0.0503 |  | 0.058 | 0.0309 |  | 0.0389 | 
F101L | 0.041 |  |  | 0.0497 | 0.0643 |  | 0.0209 | 0.0594 |  |  | 0.0667 | 0.0663 | 0.0638 |  | 0.0759 | 0.0992 | 0.0501 | 0.0488 | 
S123C | 0.0604 | 0.0662 | 0.0639 | 0.0734 |  |  |  |  | 0.0606 |  | 0.0666 |  | 0.0631 | 0.0529 | 0.0623 | 0.0537 | 0.0571 | 0.0564 | 0.0527
E103R | 0.0592 | 0.0648 | 0.0625 | 0.0656 | 0.0731 |  | 0.0653 | 0.0692 | 0.059 | 0.0559 | 0.0485 | 0.0619 | 0.0654 | 0.0726 | 0.0596 | 0.0452 | 0.0692 | 0.0571 | 0.0318
R87I | 0.0667 |  | 0.0613 | 0.054 | 0.0995 |  | 0.0524 | 0.057 | 0.0617 |  | 0.0712 |  | 0.0513 | 0.046 | 0.0402 |  | 0.0504 |  | 0.0708
